Molecular target: T1, Atto-488- or Atto-594-labelled, biotinylated CaMKII^WT-AviTag (human, UniProt Q9UQM7 6-478, Atto-488 or Atto-594 maleimide dye on the sortase recognition peptide (CLPETGG) joined to the N-terminus with SrtA; biotin on the AviTag)
T1 construct: Calcium-calmodulin-dependent protein kinase 2 alpha, human, lacking the first 5 residues, with a 30-residue linker; The two differently labelled samples differ only in the fluorophore and are written as one molecule; also called Atto-488-CaMKII^WT; Atto-594-CaMKII^WT; source: E. coli BL21 DE3, purified; biotinylated with BirA and labelled with sortase A in vitro; not shown: His6, N-terminal, …
Assay: single molecule TIRF colocalization; differently labelled holoenzymes, 55 nM CaMKII, incubated with 150 nM CaM/Ca2+, 1 mM ATP, 2 mM MgCl2 for 2 min at 37 °C (activated), then bound to a NeutrAvidin coverslip; 25 mM Tris pH 8, 150 mM KCl, 1 mM TCEP; holoenzyme with holoenzyme
Details: both partners purified

binding result: binds
B1: Atto-488- or Atto-594-labelled, biotinylated CaMKII^KD-AviTag (enzyme)
chain: not shown
modifications: Atto-488 or Atto-594 maleimide dye on the sortase recognition peptide (CLPETGG) joined to the N-terminus with SrtA; biotin on the AviTag
notes: Calcium-calmodulin-dependent protein kinase 2 alpha, human, lacking the first 5 residues, with a 30-residue linker; The two differently labelled samples are written as one molecule; also called labeled CaMKII^KD; differently labeled CaMKII^KD; source: E. coli BL21 DE3, purified; biotinylated with BirA and labelled with sortase A in vitro; not shown: His6, N-terminal, cleaved; AviTag, C-terminal, …

Reference: PMC10468207 (eLife, 2023)
